According to PMC12136788:
Some of the results follow.

B1: chr7:81084073:81084074:-_ENSMUSG00000025789_ENSMUST00000026896|mus_hu|FALSE|FALSE (ssRNA)
RNA: GGGAGUUCUACAGUCCGACGAUCAGGAUUUAAUCCAACAAACAUUUAUUGAGCAACUGCUGUGUGCUAUGCACCACGCCUAGUGCUGUGAUGGAUACAGAUGAAUAAAACACAGUCCCUGCCCUUGGCAAGCUUACAGUCUAACAACAGAGGAUUGAGCAUCA
B2: chr16:2814526:2814527:+_ENSG00000167978_ENST00000301740|hu_hu|FALSE|FALSE (ssRNA)
RNA: GGGAGUUCUACAGUCCGACGAUCCUCAGAAGAAAAUCCAGUAUUCAUUUCUGUACCAAGUGGGCCUGAGUUUCUAAAUUCUAAAGGUGAUCCAAAGCUGUUCUCCCUGAGUGGGGAGUUAGACAGUUCUUUAUGUUCUGGAGACAACAGAGGAUUGAGCAUCA
B3: chr1:95363388:95363389:-_ENSG00000117519_ENST00000538964|hu_mus|motif|central (ssRNA)
RNA: GGGAGUUCUACAGUCCGACGAUCCCGAGGGUAGUCGUCUGGGUACUCGCCAUGAUAUUCAUCGGGGUAUUCUGCCUGAUAAUCGCGGUCACUGAUUUCCGACCCAUUGGUGCCCGUGCCCUGGCUUCCGUUGUGAAUGACAGGCAACAGAGGAUUGAGCAUCA
B4: chr1:46159212:46159213:+_ENSG00000159596_ENST00000372025|hu_mus|hu_hu_hu_mus_True|1_38 (ssRNA)
RNA: GGGAGUUCUACAGUCCGACGAUCUCUGAUCCCUCCCAAGAAAGCUAGGAAACCGGCUCCAUAAGCCAUCUGAGUGAAAGCUAGGACGGGGAUAUAAGUUUUUGUCAUUACCAUGAGAAGUGGGGGAGCAGUAAAGGGGAUUAGCAACAGAGGAUUGAGCAUCA
B5: chr1:39494564:39494565:+_ENSG00000168653_ENST00000372967|hu_hu|hu_hu_hu_mus_True|18_58 (ssRNA)
RNA: GGGAGUUCUACAGUCCGACGAUCAUGCAUUCGCCUCAUCGUUUUGUACCGAAGCAAGCACUCUUCGAAGUCAUCGAAUUCUAUCUUGCACUCCUUUUUCGCCCGGGUCCCACCGAUUCCAUGUGCACACUCUAUCCACUCUUUCAACAGAGGAUUGAGCAUCA
B6: chr3:20019835:20019836:+_ENSG00000144566_ENST00000273047|hu_hu|motif|central (ssRNA)
RNA: GGGAGUUCUACAGUCCGACGAUCCAUGAAUAUUUCAUUUACAUUCAUUGAUGUUUUAGCGGAUGUCUCCAUGAAUAAUAAACGGUUGUCAUCUGCAUAGGACUGUGCUUCCUGGAAAUCUACUGCUCUUUUAUUUGCUAGGUCCAACAGAGGAUUGAGCAUCA
B7: chr17:62496344:62496345:-_ENSG00000108654_ENST00000581693|hu_mus|motif|central (ssRNA)
RNA: GGGAGUUCUACAGUCCGACGAUCCCCAAAAUCUCUCUUAAGCAGAUUAGAGUAGCCUCUGUCAUAGUUUUCCCUGUCUCGGAAGGUAUUAAAUCCACCCCUUUUGCCUGCAGAGUAUCUGUCACGACGAUCGUCCUUCAUGCCCAACAGAGGAUUGAGCAUCA
B8: 34166624_34166744_176_5pUTR_ENSMUSG00000024376_ENSMUST00000025234|mouse|control|control (ssRNA)
RNA: GGGAGUUCUACAGUCCGACGAUCCGUGGGGCGGAGCCCUGGGCGGGAGCAGCCCAGGUACAGCCAGCCCCGGCCCGGGGCGUCGGCAAAAGGCCUCGAAACUGAAGUAGGAGCCCCGGGACGGUGACCCGAGCGCCCCCCUUCCAACAGAGGAUUGAGCAUCA
B9: chr22:32879901:32879902:+_ENSG00000100225_ENST00000397426|hu_mus|hu_hu_hu_mus_False|28_38 (ssRNA)
RNA: GGGAGUUCUACAGUCCGACGAUCCUCUUCCAUACUCAUGGCAUCCUGAAUUGACUCAGCUUCAACAUUUUGACUAGGCCCUUCCAUACUGUCAUCAUUCCAAACACCAGACUGGGCGGCCUGUCCUUGGGAUGAAUCAGUCCCCAACAGAGGAUUGAGCAUCA
B10: chr9:107755404:107755405:-_ENSMUSG00000032582_ENSMUST00000035201|mus_mus|FALSE|FALSE (ssRNA)
RNA: GGGAGUUCUACAGUCCGACGAUCCUCUAUAAUCCAUAGGAGUACCAUCUCCACCCCUGUAGUCCAUAGGUGGUCCUUCUCUAUCCCGAAAAUCCCCAGAAUGUAUGUCCCUGUUCCUGAAGUCCAACUGUGCUGAAUCUCUACCAACAGAGGAUUGAGCAUCA
B11: 120571260_120571380_2981_CDS_ENSMUSG00000090100_ENSMUST00000028740|mouse|control|control (ssRNA)
RNA: GGGAGUUCUACAGUCCGACGAUCCUCUGAGACACAAUGAUAGAGCUCUCCAUUUCUAGGGACAACUUUCUCUCUCUUACCCUCUUGGUGCAAAAAAGCAGAGAGGUCUCCCUGCUGCCUUGGCAAGCUUUCACUCUGAAUACCCAACAGAGGAUUGAGCAUCA
B12: chr1:109605286:109605287:-_ENSG00000197780_ENST00000461096|hu_mus|hu_hu_hu_mus_True|68_78 (ssRNA)
RNA: GGGAGUUCUACAGUCCGACGAUCAAGUUUCAGAGUAACAUUCAGUAACCUCUUUAACAAUUGUAAUCCUUACUUUAAGCUAAGCAGAAUAAUAAUUUAAUACCGUAAGUGAACUACACACAAAGCCUGAACCGCGAAAAUGGUCAACAGAGGAUUGAGCAUCA
B13: 83833361_83836788_2724_CDS_ENSMUSG00000034940_ENSMUST00000092834|mouse|control|control (ssRNA)
RNA: GGGAGUUCUACAGUCCGACGAUCAAGGCUCAAGCUCCUCUUGUGUGAUCCUUGAACAGAAAGGUCAAAGGUUGCCAGCUCACUUUUGAUCAUUUCUUCACUGGAUUUCAUUUUGCUCUGGGAAUUAGCUACUAAGAAGUCAAACAACAGAGGAUUGAGCAUCA
B14: chr10:57943292:57943293:+_ENSMUSG00000003226_ENSMUST00000003310|mus_mus|motif|central (ssRNA)
RNA: GGGAGUUCUACAGUCCGACGAUCCAAAGAACCAGUGGCUGAACUGUUGCCAAAUGCAAAUGGCUUGGAUUUUUCACGGCGGAAAAUGCUUUUAACAGAUUCUGAGCCAAAUACAAACUUAGGAGGAGAAACUACUGCUUUUGGCAACAGAGGAUUGAGCAUCA
B15: chr7:151048522:151048523:+_ENSG00000013374_ENST00000566856|hu_mus|hu_hu_hu_mus_True|58_68 (ssRNA)
RNA: GGGAGUUCUACAGUCCGACGAUCCUGUUUCUUAUUUAUUACGAUCUUGAUGUAAUUUUCUUGAAAUCCAAAGGUUUCAGCUAUUUUACACCUCAGGUCUCUACCAGUGACAUGCAAGCGGGUCUCCAACAAGCUUUUCUUAUCCAACAGAGGAUUGAGCAUCA
B16: 31147569_31147689_162_5pUTR_ENSMUSG00000036957_ENSMUST00000046351|mouse|control|control (ssRNA)
RNA: GGGAGUUCUACAGUCCGACGAUCAAAUAUUGGGAUCCAUGCUCCAAAAUAAUGGGGUUCGGCUUCCAAAUCUUGGGGUCCCAGAGACGGAUGUCGGGAUUCCAGCCCCAGAUAUUGAGGUUCAAGGUCCGAGUCUUAGGGUUCCAACAGAGGAUUGAGCAUCA
B17: chr8:74858975:74858976:-_ENSG00000154582_ENST00000284811|hu_mus|hu_hu_hu_mus_True|48_88 (ssRNA)
RNA: GGGAGUUCUACAGUCCGACGAUCGACCUUGUAGGUAAAAUACAUGCAUACUUUCGAUAGCACAUGUGAGGGGAUCUCUCUAAAAUUGACCUCAUUGGUUUCAUUCUCAGCAAACUGACCUGGACCACUCAACAUAGCCUUUAUCAACAGAGGAUUGAGCAUCA
B18: 4711491_4711611_344_5pUTR_ENSMUSG00000067889_ENSMUST00000008991|mouse|control|control (ssRNA)
RNA: GGGAGUUCUACAGUCCGACGAUCCCUUUUCAAAGGUCCCUUUUGGGGCACCUCCAGGCCAUCUCGCUUAAGCGUUUCUCUCUGCCUUGCCCCCUUUCUCUCGUCCUCCUUCUGGCAGGUAGGCUGGCCCGCUUUCCAAAAGCACAACAGAGGAUUGAGCAUCA
B19: chr7:141445308:141445309:+_ENSG00000106028_ENST00000265304|hu_hu|hu_hu_hu_mus_False|38_58 (ssRNA)
RNA: GGGAGUUCUACAGUCCGACGAUCUAUGAUUGUUGUUGCUUGCCGCCUCACAUUGUUUUUAUCCAUGUACUCGCCAUAGUCUAUUUUCCCUUCCACAUAAAUUCGAGCCCCCUUUUUCACAUACUGAUAUGCCACAUCUCUGAGCAACAGAGGAUUGAGCAUCA
B20: 120740698_120742171_2696_CDS_ENSMUSG00000027272_ENSMUST00000028728|mouse|control|control (ssRNA)
RNA: GGGAGUUCUACAGUCCGACGAUCCAGGUUGACUACUUUGCUGAAAGCAGGGCAGAACUCCGGAGGAGGUGGCGGCGGCAAUGCUUCAUCUUUAUUUUCUUGUUUUCUCCUUUUCUUCUGCAUAUGUUCAGCCUUGCUAUGCUGCAACAGAGGAUUGAGCAUCA
B21: chr7:107556079:107556080:+_ENSG00000091140_ENST00000440410|hu_hu|FALSE|FALSE (ssRNA)
RNA: GGGAGUUCUACAGUCCGACGAUCAUCAAUUUUUCCAUCUGACUUCUUGGUAGCACCAGUAACCUUUGUAUUCAAUUUAAAUUUAAACCCCUGUUUUUGAAGGAUGCGUUGAAAGUUUUUAGAUAUCUCCAUAUCAAUUCCAACCAACAGAGGAUUGAGCAUCA
B22: 170108172_170108863_2360_3pUTR_ENSG00000136603_ENST00000458537|human|control|control (ssRNA)
RNA: GGGAGUUCUACAGUCCGACGAUCGUUCCUUCAUAGAUUUUGAACUACUCAACAUUUUUACUUCCAUCUGAAGUUGUUGCUUCUUUUGCAAAAUCAAGUUUAGUUUUUCCUGUUGUUUUAAAUAAGUUCUCAUUACUUCUUCCACAACAGAGGAUUGAGCAUCA

These binders were tested against T1, UNK ZnF1-3 (human, UniProt Q9C0B0 31-174) (assay: nsRBNS (natural sequence RNA bind-n-seq); RBNS binding buffer (assumed for nsRBNS): 25 mM Tris pH 7.5, 150 mM KCl, 3 mM MgCl2, 0.01% Triton X-100, 500 ug/ml BSA, 20 U/ml SUPERase-In, 4 C; UNK is unkempt and MSI1 is Musashi-1; names of the RNAs are library labels; protein concentration not given here; high values mean tight binding).
T1 sequence: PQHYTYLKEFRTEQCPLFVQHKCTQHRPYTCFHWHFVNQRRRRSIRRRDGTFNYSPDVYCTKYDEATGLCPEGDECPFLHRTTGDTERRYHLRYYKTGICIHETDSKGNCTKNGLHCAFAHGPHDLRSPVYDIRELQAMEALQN
With B1 the binding signal was 1.2 enrichment R.
B2 was tested, and the binding signal was 1.14 enrichment R.
In the case of B3, the binding signal is reported as 0.722 enrichment R.
Work on B4 yielded a binding signal of 2.07 enrichment R.
B5 gave a binding signal of 0.598 enrichment R.
Work on B6 yielded a binding signal of 0.589 enrichment R.
For B7, the binding signal was 0.883 enrichment R.
B8 showed a binding signal of 0.519 enrichment R.
For B9, the binding signal was 1.05 enrichment R.
For B10, the binding signal was 0.897 enrichment R.
In the case of B11, the binding signal is reported as 0.897 enrichment R.
B12 showed a binding signal of 0.896 enrichment R.
B13 gave a binding signal of 0.791 enrichment R.
B14 gave a binding signal of 2.2 enrichment R.
With B15 the binding signal was 0.569 enrichment R.
Binder B16 has a binding signal of 0.968 enrichment R.
For B17, the binding signal was 0.946 enrichment R.
In the case of B18, the binding signal is reported as 0.76 enrichment R.
B19 was tested, and the binding signal was 0.538 enrichment R.
Work on B20 yielded a binding signal of 0.54 enrichment R.
For B21, the binding signal was 1.32 enrichment R.
B22 was tested, and the binding signal was 0.312 enrichment R.
